In one experiment the test system is HSkMC. The experiment is described as follows: cytotoxicity call (relative viability < 0.9). The following applies: 10 µM.
Another experiment has as its system HepG2. Description: cytotoxicity call (relative viability < 0.9). The following applies: 10 µM.
For the next experiment, the system named is S. aureus RN4220. The experiment is described as follows: growth inhibition call (relative growth <= 0.2). The following applies: 50 µM.

28 molecules from the antibiotic and cytotoxicity screens of Wong et al. (2023) can be followed below.

This is one part of the list.

Take `C[C@H](CO)N1C[C@H](C)[C@@H](CN(C)S(=O)(=O)c2ccc(Cl)cc2)Oc2c(cccc2N(C)C)C1=O`: the cytotoxicity call in the experiment on HSkMC and in the experiment on HepG2 was “inactive” throughout. In addition, in the experiment with S. aureus RN4220, the growth inhibition call was “inactive”.

As to `Cn1nc(-c2ccccn2)nc2c(=O)n(C)c(=O)nc1-2`, the cytotoxicity call with HSkMC and in the experiment on HepG2 was “active” in each case. In addition, in the experiment on S. aureus RN4220, the growth inhibition call was “inactive”.

Regarding `C[C@@H]1CCCCO[C@@H](CN(C)Cc2ccncc2)[C@H](C)CN([C@@H](C)CO)C(=O)c2cc(NC(=O)NC3CCCCC3)ccc2O1`, the cytotoxicity call in the experiment with HSkMC and in the experiment with HepG2 was “inactive” in each case. For the same molecule, in the experiment with S. aureus RN4220, the growth inhibition call is “inactive”.

For `Cc1noc(C)c1NC(=O)Nc1ccc2c(c1)C(=O)N([C@@H](C)CO)C[C@@H](C)[C@@H](CN(C)S(=O)(=O)c1ccc(F)cc1)OCCCC[C@@H](C)O2`, the cytotoxicity call in the experiment with HSkMC and with HepG2 was “inactive” each time. Also, the growth inhibition call in the experiment with S. aureus RN4220 is “inactive”.

For `C[C@@H]1CN([C@@H](C)CO)C(=O)c2cc(NC(=O)c3ccccc3)ccc2O[C@@H](C)CCCCO[C@@H]1CN(C)Cc1ccncc1`, the cytotoxicity call in the experiment on HSkMC and with HepG2 was “inactive” each time. Also, the growth inhibition call in the experiment on S. aureus RN4220 was “inactive”.

As to `COc1cc(O)c(C(C)=O)c(OC)c1`, the cytotoxicity call in the experiment on HSkMC and in the experiment on HepG2 was “inactive” throughout. The growth inhibition call with S. aureus RN4220 is “inactive”.

As for `C[C@@H]1CN([C@@H](C)CO)C(=O)c2ccccc2-c2ccccc2CO[C@@H]1CN(C)S(=O)(=O)c1ccc(C(F)(F)F)cc1`, the cytotoxicity call in the experiment with HSkMC and with HepG2 was “inactive” in each case. The growth inhibition call in the experiment on S. aureus RN4220 was “inactive”.

As to `O=C(CN1CCOCC1)N[C@H]1CC[C@@H](CCNC(=O)C2CCCCC2)O[C@H]1CO`, the cytotoxicity call in the experiment with HSkMC and with HepG2 was “inactive” in each case. Further, the growth inhibition call with S. aureus RN4220 is “inactive”.

As to `C[C@H]1CN([C@@H](C)CO)C(=O)CCCn2nncc2CO[C@H]1CN(C)S(C)(=O)=O`, the cytotoxicity call with HSkMC and in the experiment with HepG2 was “inactive” in each case. Besides, the growth inhibition call in the experiment on S. aureus RN4220 is “inactive”.

On to `CC(=O)NCCCC[C@@H]1NC(=O)[C@H]2C[C@@H](C(=O)NCCCCCN)[C@@H](c3cccc(OCCO)c3)N2C1=O`, for which the cytotoxicity call with HSkMC and in the experiment with HepG2 was “inactive” each time. For the same molecule, the growth inhibition call in the experiment on S. aureus RN4220 is “inactive”.

With `O=C1N[C@@H](Cc2c[nH]c3ccccc23)COC(=O)[C@@H](Cc2ccc(F)cc2)CC=CC[C@@H]1CC(=O)N(CCO)Cc1ccccc1`, in the experiment on HSkMC, the cytotoxicity call is “inactive”. In the experiment with HepG2, the cytotoxicity call is “active”. For the same molecule, the growth inhibition call in the experiment with S. aureus RN4220 was “inactive”.

For `O=C(O)c1cccc(O)c1O`, the cytotoxicity call in the experiment with HSkMC and in the experiment with HepG2 was “inactive” throughout. The growth inhibition call with S. aureus RN4220 is “inactive”.

In the case of `C[C@@H]1CN([C@H](C)CO)C(=O)c2cc(C#Cc3cccc(F)c3)cnc2O[C@H]1CN(C)CC1CCOCC1`, the cytotoxicity call in the experiment with HSkMC and in the experiment on HepG2 was “inactive” in each case. Moreover, the growth inhibition call in the experiment on S. aureus RN4220 is “inactive”.

In the case of `C[C@H](CO)N1C[C@H](C)[C@H](CN(C)S(=O)(=O)c2cccs2)Oc2ccc(NS(=O)(=O)c3cn(C)cn3)cc2CC1=O`, the cytotoxicity call with HSkMC and in the experiment on HepG2 was “inactive” each time. In addition, the growth inhibition call in the experiment with S. aureus RN4220 was “inactive”.

With `C[C@H]1CN([C@@H](C)CO)C(=O)CCCn2nncc2CO[C@@H]1CN(C)C(=O)c1ccc(N2CCN(C)CC2)cc1`, the cytotoxicity call in the experiment on HSkMC and with HepG2 was “inactive” in each case. For the same molecule, the growth inhibition call in the experiment with S. aureus RN4220 is “inactive”.

In the case of `C[C@H](CO)N1C[C@H](C)[C@@H](CN(C)S(=O)(=O)c2cccc(C#N)c2)OCc2cnnn2CCCC1=O`, the cytotoxicity call with HSkMC and in the experiment on HepG2 was “inactive” in each case. The growth inhibition call in the experiment on S. aureus RN4220 is “inactive”.

On to `COC(=O)C1=C(C)NC(C)=C(C(=O)OCCCN2CCC(c3ccccc3)(c3ccccc3)CC2)[C@H]1c1cccc([N+](=O)[O-])c1`, for which the cytotoxicity call with HSkMC and with HepG2 was “active” throughout. Also, the growth inhibition call in the experiment with S. aureus RN4220 is “inactive”.

As for `C[C@H]1CN([C@@H](C)CO)C(=O)c2cc(NC(=O)c3ccncc3)ccc2O[C@H]1CN(C)Cc1ccc(-c2ccccc2)cc1`, the cytotoxicity call in the experiment on HSkMC and with HepG2 was “inactive” each time. The growth inhibition call in the experiment on S. aureus RN4220 is “inactive”.

Regarding `C[C@@H]1CCCCO[C@@H](CN(C)C(=O)Nc2ccc(C(F)(F)F)cc2)[C@H](C)CN([C@@H](C)CO)C(=O)c2cc(NC(=O)Nc3ccccc3)ccc2O1`, the cytotoxicity call with HSkMC and with HepG2 was “inactive” each time. Also, in the experiment on S. aureus RN4220, the growth inhibition call is “inactive”.

`COCC#Cc1ccc2c(c1)O[C@H](CN(C)C(=O)COC)[C@@H](C)CN([C@H](C)CO)S2(=O)=O`: the cytotoxicity call in the experiment on HSkMC and in the experiment with HepG2 was “inactive” in each case. In addition, the growth inhibition call in the experiment with S. aureus RN4220 was “inactive”.

Take `CO/N=C1\CN(c2nc3c(cc2F)c(=O)c(C(=O)O)cn3C2CC2)C[C@@H]1CN`: the cytotoxicity call with HSkMC and in the experiment on HepG2 was “inactive” each time. In addition, the growth inhibition call in the experiment on S. aureus RN4220 was “active”.

With `C[C@@H]1CN([C@@H](C)CO)C(=O)c2cccc(NC(=O)Nc3ccc(C(F)(F)F)cc3)c2O[C@@H]1CN(C)C(=O)Nc1cccc2ccccc12`, the cytotoxicity call in the experiment on HSkMC and in the experiment with HepG2 was “active” each time. Further, the growth inhibition call with S. aureus RN4220 was “inactive”.

As to `COC(=O)C[C@H]1NCCNC1=O`, the cytotoxicity call in the experiment on HSkMC and in the experiment with HepG2 was “inactive” in each case. The growth inhibition call in the experiment with S. aureus RN4220 is “inactive”.

`C[C@@H]1CCCCO[C@H](CN(C)C(=O)C2CCCCC2)[C@@H](C)CN([C@@H](C)CO)C(=O)c2cc(NC(=O)Nc3ccc(F)cc3)ccc2O1`: the cytotoxicity call with HSkMC was “inactive”. In addition, in the experiment on HepG2, the cytotoxicity call was “active”. The growth inhibition call with S. aureus RN4220 was “inactive”.

Turning to `C[C@@H]1CN([C@H](C)CO)C(=O)Cc2cc(NS(=O)(=O)c3cn(C)cn3)ccc2O[C@H]1CN(C)S(=O)(=O)c1ccc(F)cc1`, the cytotoxicity call in the experiment with HSkMC and in the experiment with HepG2 was “inactive” throughout. For the same molecule, the growth inhibition call in the experiment with S. aureus RN4220 was “inactive”.

Regarding `C[C@@H]1CN([C@H](C)CO)C(=O)Cc2cc(NC(=O)Nc3ccc4c(c3)OCO4)ccc2O[C@@H]1CN(C)Cc1ccc(Cl)c(Cl)c1`, the cytotoxicity call with HSkMC is “active”. In addition, the cytotoxicity call with HepG2 is “inactive”. The growth inhibition call in the experiment with S. aureus RN4220 is “inactive”.

Turning to `COc1ccc(-c2coc3cc(O)ccc3c2=O)cc1`, the cytotoxicity call in the experiment with HSkMC and with HepG2 was “inactive” each time. The growth inhibition call in the experiment on S. aureus RN4220 is “inactive”.

On to `C[C@H]1CN([C@@H](C)CO)S(=O)(=O)c2ccc(C#CCN(C)C)cc2O[C@H]1CN(C)Cc1cccnc1`, for which the cytotoxicity call in the experiment on HSkMC (human skeletal muscle cells) and with HepG2 was “inactive” each time. The growth inhibition call with S. aureus RN4220 was “inactive”.
